The campaign covered roughly 410,000 compounds. About 5,000 (1.2%) were called active. The shares of active, inactive and inconclusive entries below differ from those in the screen. Calls follow the shape of the dose curve; as a rule, active = well fitted inhibition curve with a large enough effect; inconclusive = small, poorly fitted or top-dose-only effect; inactive = no such curve, though single readings can be large or run the other way. Potencies beside an inconclusive call are fits to weak or partial responses and may not hold up.
Experiment: qHTS for Inhibitors of TGF-b; also: nearly all actives have a fitted effect of over 65% in size
Settings: HepG2 CAGA-GFP TGF-b/SMAD3 reporter, GFP fluorescence, 18 h, TGF-beta stimulated, 500 pg/mL final; series mostly up to 46.1 µM; activity, negative = inhibition: at the top concentration
In short: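 Inhibition of TGF-beta-driven CAGA-GFP reporter expression in HEPG2 cells is measured by cellular GFP fluorescence after 18 h stimulation with 500 pg/mL recombinant TGF-beta in 1% FBS medium at 37 degrees C.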
% is scaled to controls: 0 for no effect and ±100 for the full control effect; potency is read from the fitted curve at half-maximal effect; tags tell the direction and shape of the fitted curve.

SMILES	Potency	activity, negative = inhibition
Cc1ccc(C(=O)N2CCc3cc(CNS(=O)(=O)c4ccc(Cl)s4)ccc32)cc1	inconclusive: 20 µM [inhibitor, single point]	
Cn1c(SCC(=O)N2c3ccccc3CCc3ccccc32)nnc1-c1cc2ccccc2cc1O	inconclusive: 3.98 µM [inhibitor, single point]	
CCCCN(C(=O)C(C)N1C(=O)c2ccccc2C1=O)c1c(N)n(CCCC)c(=O)[nH]c1=O (stereo not drawn)		inactive: -3.77%
COC(=O)c1ccccc1S(=O)(=O)N1CCC(C(=O)OC(C)C(=O)N(C)Cc2ccccc2)CC1 (stereo not drawn)	inconclusive: 3.55 µM [inhibitor, partial curve, poor fit]	
Cc1ccc(CN2C(=O)C(Cc3ccccc3)Nc3ncnc(N4CCOCC4)c32)cc1 (stereo not drawn)	inconclusive: 11.2 µM [inhibitor, partial curve]	
Cn1c(N)c(C(=O)COC(=O)c2ccc(Cl)c(S(=O)(=O)N3CCCCC3)c2)c(=O)n(C)c1=O	inconclusive: 3.16 µM [inhibitor, single point]	
CC1=C(CC(=O)c2ccc(Cl)cc2)C(=O)c2ccccc2C1=O	active: 12.6 µM	
c1ccc2c(c1)CCCN2Cc1nnnn1C1CCCC1	inconclusive: 35.5 µM [inhibitor, single point]	
Cc1nc2c(-c3ccc(F)cc3)cnn2c(N)c1-c1ccccc1	inconclusive: 35.5 µM [inhibitor, single point]	
Cc1cccc(NC(=O)C(Cc2ccccc2)n2cccc2)c1 (stereo not drawn)	inconclusive: 14.1 µM [inhibitor, single point]	
Cc1ccc(CNC(=O)c2cc(COc3c(F)cccc3F)on2)s1		inactive: -1.71%
COc1ccc(Cc2nc3ccc(C(=O)NC4CCOC4)cc3o2)cc1 (stereo not drawn)		inactive: -7.64%
CN(CC(=O)Nc1ccccc1Cl)C(=O)COC(=O)c1ccc([N+](=O)[O-])cc1Cl	inconclusive: 6.31 µM [inhibitor, full curve]	
C=CCNc1nc(N)c([N+](=O)[O-])c(NCc2ccccc2)n1		inactive: 6.83%
COc1ccccc1N1CCN(C(=O)c2ccc(CS(=O)c3ccccc3C)o2)CC1 (stereo not drawn)	inconclusive: 35.5 µM [inhibitor, single point]	
N#C/C(N=Nc1ccccc1O)=N\Nc1ccccc1O	inconclusive: 2.82 µM [inhibitor, full curve, poor fit]	
COc1cc(C(=O)Nc2nc(-c3cccs3)cs2)cc(OC)c1OC	inconclusive: 35.5 µM [inhibitor, single point]	
C[C@H](CO)N1C[C@H](C)[C@H](CN(C)C)Oc2ccc(NS(=O)(=O)c3ccc(F)cc3)cc2CC1=O		inactive: 1.43%
COc1cccc(CNC(=O)c2cc3c(C)nc4ccccc4c3o2)c1	inconclusive: 20 µM [inhibitor, single point]	
COc1ccc(NS(=O)(=O)c2cccc(NC(=O)c3cnccn3)c2)cc1Br	inconclusive: 35.5 µM [inhibitor, single point]	
O=C(Nc1nncs1)c1cccc(S(=O)(=O)N2CCc3ccccc32)c1		inactive: -1.63%
O=C(NC1CC1)c1ccc(Cn2c(SCc3cccc(F)c3)nc3cccnc32)cc1	inconclusive: 25.1 µM [inhibitor, single point]	
O=C(NCC(c1cccnc1)N1CCc2ccccc2C1)c1ccc(F)c(F)c1 (stereo not drawn)	inconclusive: 15.8 µM [inhibitor, partial curve]	

SMILES	Potency	activity, negative = inhibition
O=C(Nc1ccc(Cl)cc1)C1CCN(c2nc3ccccc3nc2C(F)(F)F)CC1		inactive: -5.39%
Cc1nc2c(-c3ccc(Cl)cc3)c(C)[nH]n2c(=O)c1Cc1ccccc1	active: 11.2 µM	
O=S1(=O)c2c(Oc3cccc4ccccc34)cccc2OC(COCc2ccccc2)CN1C1CCCC1 (stereo not drawn)		inactive: -5.99%
Cc1ccc(S(=O)(=O)N2[C@@H](c3ccc(Cl)cc3)C(C(=O)O)=CC[C@H]2c2cccc(Cl)c2)cc1		inactive: -0.697%
S=c1c2c(nc3nc[nH]n13)CCC2	active: 10 µM	
OC(c1ccccc1)(c1nc(-c2ccc(F)c(Cl)c2)cs1)C(F)(F)F (stereo not drawn)	inconclusive: 25.1 µM [inhibitor, single point]	
OC1CN=C2C=CC=CN2C1 (stereo not drawn)		inactive: -9.45%
O=C(C1CCCCC1)N1C[C@H](n2cc(C3CC3)nn2)[C@@H](O)C[C@@H]1c1ccccc1		inactive: 1.7%
CCCCOc1[nH]c2nc(-c3ccco3)n(Cc3ccco3)c(=N)c2c1C#N	inconclusive: 14.1 µM [inhibitor, single point]	
COc1ccc(OC)c(NC(=O)C2CCCN(S(=O)(=O)c3c(C)nn(C)c3C)C2)c1 (stereo not drawn)	inactive	
COc1cc([N+](=O)[O-])ccc1NC(=O)/C=C\C(=O)O	inconclusive: 35.5 µM [inhibitor, single point]	
COCCN(CC(=O)Nc1cccc(C)c1C)C(=O)C1(c2ccc(Cl)cc2)CCC1	inconclusive: 35.5 µM [inhibitor, single point]	
COC(=O)c1[nH]c2ccc(C)cc2c1NC(=O)CN1CCCc2ccccc21	inconclusive: 11.2 µM [inhibitor, partial curve, poor fit]	
COc1ccc2ccccc2c1-c1sc(Nc2ccccc2)n[n+]1-c1ccc(F)cc1	inconclusive: 17.8 µM [inhibitor, single point]	
CCOC(=O)c1ccc(NC(=O)CCCc2nc(-c3ccccc3Cl)no2)cc1	inconclusive: 35.5 µM [inhibitor, single point]	
CCOC(=O)CNC(c1ccccc1)c1cc(Br)ccc1NC(=O)CCN1CCOCC1 (stereo not drawn)	inconclusive: 35.5 µM [inhibitor, single point]	
c1ccc2c(c1)c1c(c3ccccc32)CN2CCCC2C1 (stereo not drawn)	inconclusive: 28.2 µM [inhibitor, single point]	
CC(=O)c1c(C)[nH]c(C(=O)NC(C)c2ccccc2)c1C (stereo not drawn)		inactive: -6.78%
COc1ccc(/C(C)=N/Nc2nccnc2Cl)cc1	inconclusive: 35.5 µM [inhibitor, single point]	
COc1ccc(C2=CC(=O)N(Nc3ccccc3)C2=O)cc1	inconclusive: 35.5 µM [inhibitor, single point]	
Cc1cc(Nc2cccc([N+](=O)[O-])c2)n2c(nc3ccccc32)c1C#N	active: 1.58 µM	
COc1ccc(C2C(C#N)=C(N)OC3=C2C(=O)CC(C)(C)C3)cc1 (stereo not drawn)		inactive: 5.93%
CN(C(=O)COc1ccccc1C(=O)Nc1ccccc1)c1ccccc1	inconclusive: 35.5 µM [inhibitor, single point]	

SMILES	Potency	activity, negative = inhibition
Cc1ccc(Cc2c(-c3ccccc3)nc3ccc(Cl)cn23)cc1	inconclusive: 7.94 µM [inhibitor, partial curve]	
Cc1cccc(N2CCN(C(=O)c3cc(S(=O)(=O)N4CCOCC4)cn3C)CC2)c1C		inactive: -1.35%
Cc1nc2ccccc2n1-c1nc(-c2ccco2)cc(C(F)(F)F)n1	inconclusive: 3.16 µM [inhibitor, single point]	
CCNc1[nH]c(=O)n(C)c(=O)c1N=O	inconclusive: 12.6 µM [inhibitor, partial curve, poor fit]	
COc1c(C)cc(S(=O)(=O)NCCc2c(C)[nH]c3ccccc23)c(C)c1C	inconclusive: 35.5 µM [inhibitor, single point]	
CC(C)NC(=O)CCn1c(=S)oc2ccccc21	inconclusive: 3.16 µM [inhibitor, single point]	
COCCn1c(C)cc(C(=O)CSc2cc(C)c3ccccc3n2)c1C		inactive: -1.79%
CCOC(=O)c1cc(-c2ccccc2)n(-c2cccc(C(=O)Nc3ccc(F)c(F)c3)c2)c1C	inconclusive: 3.55 µM [inhibitor, partial curve, poor fit]	
S=c1nc[nH]c2c1sc1nc(-c3ccccc3)c3c(c12)CCCC3		inactive: -0.568%
CC(C)(CN1CCN(Cc2ccccc2)CC1)NS(=O)(=O)c1ccc(Cl)cc1	inconclusive: 35.5 µM [inhibitor, partial curve, poor fit]	
Cn1c(SCC(=O)Nc2cc(C(C)(C)C)nn2-c2ccccc2)nc2ccccc21		inactive: -27.2%
C/C(=N\NC(=S)NCC(C)(C)C)c1cc(F)cc(F)c1O	inconclusive: 17.8 µM [inhibitor, partial curve, poor fit]	
COC(=O)c1ccccc1NC(=O)NN1CCN(C)CC1		inactive: 6.1%
CCOc1ccc(N2CC(c3nc4ccccc4n3Cc3cccc(Cl)c3)CC2=O)cc1 (stereo not drawn)	inconclusive: 35.5 µM [inhibitor, single point]	
CCOc1ccc(S(=O)(=O)N2CCOCC2)cc1NS(=O)(=O)c1ccc(OC)c([N+](=O)[O-])c1	inconclusive: 2.82 µM [inhibitor, single point]	
Cc1cc(C)cc(C(=O)Nc2ccc(-c3nc4ncccc4o3)cc2)c1		inactive: -0.323%
Cc1c2cnn(CC(=O)N3CCN(c4ccc(F)cc4)CC3)c(=O)c2c(C)n1Cc1ccc(F)cc1	inconclusive: 1.12 µM [inhibitor, full curve]	
Cc1ccc(CNC(=O)Cn2nc(C)n3cccc3c2=O)cc1	inconclusive: 3.98 µM [inhibitor, single point]	
CCN(CC)CCNc1ccc(C)c2sc3ccc(O)cc3c(=O)c12	inconclusive: 28.2 µM [inhibitor, single point]	
Cc1ccc(-n2ncc(C(=O)N3CCN(c4cccc(C)c4)C(C)C3)c2C2CCN(C(=O)OC(C)(C)C)CC2)cc1 (stereo not drawn)		inactive: -17%
Cc1[nH]c2ccc(Br)cc2c(=S)c1C/C=C/Cl	inconclusive: 35.5 µM [inhibitor, single point]	
CCOC(=O)c1c(SCCN2CCCC2)n(-c2ccccc2)c(=S)n(-c2ccccc2)c1=O	inconclusive: 5.01 µM [inhibitor, partial curve, poor fit]	

Source: PubChem BioAssay AID588855 (National Center for Advancing Translational Sciences (NCATS), 2011)
